This note sets out measurements from the RNAGym collection of RNA variant scans (doi:10.1073/pnas.2313332121).

The chains are these.
B1: TPR 5TU (parent)
chain: GGAUCUUCUCGAUCUAACAAAAAAGACAAAUCUGCCACAAAGCUUGAGAGCAUCUUCGGAUGCAGAGGCGGCAGCCUUCGGUGGCGCGAUAGCGCCAACGUUCUCAACUAUGACACGCAAAACGCGUGCUCCGUUGAAUGGAGUUUAUCAUG

Variants at the background level are over-represented here.

In the data set the parent is B1. Put plainly: polymerase ribozyme fitness, log enrichment relative to wild type (log ratio); higher = more active; in vitro selection for triplet polymerase activity. Put shortly:
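A single round of triplicate in vitro selection, including frozen incubation at −7 °C, was applied to PCR-built, transcribed mutant libraries of each subunit of a heterodimeric triplet polymerase ribozyme. Illumina sequencing of input and output libraries retained genotypes with ≥10 input reads and ≥1 read per output. Fitness is the base-2 logarithm of genotype enrichment divided by wild-type enrichment, from inverse-variance-weighted replicate averages.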
Turning to C10G C14U A17C G46A C57U A89C A98G U139G G141U, the “polymerase ribozyme fitness (log ratio)” value was at most -4.2.
Under C10U C27G C54U C95G C96G A110G stands at most -4.2; under C10G A21C U53A G88U A137C, at most -4.2.
Under C10G A49C G50C G67U C93G C108U G112C C125U stands at most -4.2.
For the variant C10U G59A C87A A120U U145C, the “polymerase ribozyme fitness (log ratio)” value is at most -4.2.
For C10G A19G G48C C87A A98G C99U C103A C114U G133U, the “polymerase ribozyme fitness (log ratio)” value was at most -4.2.
As for C10U A30C C103G, the “polymerase ribozyme fitness (log ratio)” value is at most -4.2.
C10G A60G A64C A73G C93A: the “polymerase ribozyme fitness (log ratio)” value is at most -4.2.
Consider C10U A52U U90A C93G C96U, for which the “polymerase ribozyme fitness (log ratio)” value is at most -4.2.
Under C10G C36U U56A A91U G94C C99U G126U stands at most -4.2; under C10G A21U A91G, at most -4.2.
Turning to C10A U31C U61A, the “polymerase ribozyme fitness (log ratio)” value is at most -4.2.
Under C10U C35G U55G G81A A98G U102A stands at most -4.2; under C10A A66U G81A G94U U134A, at most -4.2; under G11A A12C U90C A91C, at most -4.2.
The figure for C10U A23G G50U U53A G71C C87A A120U is at most -4.2; for C10U U44G U55A C93A A120G it is at most -4.2.
Under C10U C14A C27U C38U G48A A52C C85A U146C U151C stands at most -4.2; under C10U U33G C85U A106U A119C, at most -4.2; under C10U A21U G50A G71A C76G A89C C96G A113G A119U U127C, at most -4.2.
In the case of C10G A30G C38A G94U C125G U144C, the “polymerase ribozyme fitness (log ratio)” value was at most -4.2.
Under C10A G48C C51U U53C G92C C105U C114A A120G stands at most -4.2; under C10G C35U U55C C75U G86U U151G, at most -4.2; under C10G A21U A28U A29U C36G G143A, at most -4.2.
The figure for C10U U45A C99A is at most -4.2; for C10A A91G C93U U144G it is at most -4.2; for C10A U55A G86U A91U it is at most -4.2.
Under C10G A12G A120U U135C stands at most -4.2.
In the case of C10U U55A C72U, the “polymerase ribozyme fitness (log ratio)” value was -3.95.
The figure for C10U U31A A60G C105U A122C G141C U145G A150G is at most -4.2; for C10G A20C U33G C93A G94U C96G C114U U145A it is at most -4.2.
Under C10G A39U G58U stands at most -4.2; under C10G C54U U55A C79G C93U A98G C116G A122U, at most -4.2; under C10A A47G A60G U78A G94C, at most -4.2.
Under C10U G48U C54A C85A A142G stands at most -4.2.
Take C10U C38U C57U G117A U139A: the “polymerase ribozyme fitness (log ratio)” value is at most -4.2.
The figure for C10G A30U C43G G58A G68A G80A A113C is at most -4.2; for C10U A21U A41U G42A C76U G80A C85U A97C G133C G141A U146G C149U it is at most -4.2; for C10U A29G A66G C72U G88A G133U A137U A150G it is at most -4.2.
The figure for C10U A22G G94C is at most -4.2.
Regarding C10G A52G C54U G58C C79A C95U, the “polymerase ribozyme fitness (log ratio)” value is -3.91.
Under C10U A22U C32G C85A G86A A121U U127C stands at most -4.2.
For C10G A97U U130G, the “polymerase ribozyme fitness (log ratio)” value is at most -4.2.
Under C10G A17G C57U U61A G80U U127G stands at most -4.2; under C10G C93G C132G, at most -4.2; under C10A U56C G80C G81C C93G G124U C132G, at most -4.2.
The figure for C10G U44G C93A U134G G141U G152U is at most -4.2; for C10U A17C A21G C54A C76G G86U U144G it is at most -4.2; for C10G U56A A89U C99U G112C U145G it is at most -4.2.
The figure for C10G A22U G48U G50C G88U is at most -4.2.
Turning to C10A C27U A119U A138G, the “polymerase ribozyme fitness (log ratio)” value was at most -4.2.
Turning to C10U A16U A21G A73G A91U, the “polymerase ribozyme fitness (log ratio)” value is at most -4.2.
The figure for C10U A19U A37C U45A U56A G92A is at most -4.2.
Under C10G G11C A66U stands at most -4.2.
The figure for C10A A41U C51G C87A is at most -4.2.
As to C10U A19U A26C C27A C76G G81C U148C, the “polymerase ribozyme fitness (log ratio)” value was at most -4.2.
Take C10G A52C G70U C85G G117U: the “polymerase ribozyme fitness (log ratio)” value was at most -4.2.
As for C10G A37U U55A G94A C95G G140C, the “polymerase ribozyme fitness (log ratio)” value is at most -4.2.
The figure for C10G C51U G92A G124C is at most -4.2; for C10G C38U C51U U56A G80A G94U A113U G126A it is at most -4.2; for C10G G42A C96G U111G C116G G140C it is at most -4.2.
Under C10A C27A G86U U101G C103U C125U C131U G141U stands at most -4.2; under C10A C14G A19U A30C C93U, at most -4.2; under C10U U33G C43U U55A G59A C87A C95A A121G, at most -4.2.
Consider C10U U77G C87A A91C C108U G133A, for which the “polymerase ribozyme fitness (log ratio)” value was at most -4.2.
The figure for C10U A40G G50U C79G C99U C108G G117A is at most -4.2; for C10G C14U G50C C54A C76G C105G it is at most -4.2.
Under C10G U44G A49C A52C A64C G74C U104G A122G G141A stands at most -4.2; under C10U A47U G62A A73G U77G G117A, at most -4.2; under C10G C32U C75U C85U A121C, at most -4.2.
Under C10G C32U C38U A49G U109G A120U G128C stands at most -4.2; under C10G A40G G48A G70C A120U U134G, at most -4.2; under C10A C85G C114G C129U U135G, at most -4.2.
Consider C10G C85G, for which the “polymerase ribozyme fitness (log ratio)” value was at most -4.2.
The figure for C10U A12C G34A G92C A121C is at most -4.2; for C10G A41G A115G it is at most -4.2.
The figure for C10A U15A A23U G42A G133U U148G is at most -4.2; for C10G U56A C57U C69U C95A C99U C108U A121U A147G it is at most -4.2; for C10G A19C A41G G46U C95G C96U it is at most -4.2.
With C10G U33C G83A U90G, the “polymerase ribozyme fitness (log ratio)” value is at most -4.2.
The figure for C10U G11U A29C U44G U55A G68A G71U G80A C93A A98U A138C is at most -4.2; for C10U G58C A60C G92U C149U it is at most -4.2.
In the case of C10G G25C A40G C75U G84U U148A, the “polymerase ribozyme fitness (log ratio)” value is at most -4.2.
Under C10U C14G C32A C76A G83U G88C C93G stands at most -4.2.
